“And” between values parts separate entries of the source, which are not always exact repeats. Identical values can stand only once. The whole screen tested about 110,000 compounds, of which about 230 (0.21%) showed an effect of 50% or more. Some of the results follow.
These compounds were tested against DPAP1 (Plasmodium falciparum, UniProt Q8IIJ9) (assay: primary screen, percent inhibition; read by cleavage of a fluorogenic dipeptide substrate; higher = more effect of the substance).
Design: species or system P. falciparum D10 trophozoite lysates; single well
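Further: 30 min substrate incubation versus DMSO and 10 µM JCP410 controls.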

DPAP1, sequence (Q8IIJ9 whole entry, looked up): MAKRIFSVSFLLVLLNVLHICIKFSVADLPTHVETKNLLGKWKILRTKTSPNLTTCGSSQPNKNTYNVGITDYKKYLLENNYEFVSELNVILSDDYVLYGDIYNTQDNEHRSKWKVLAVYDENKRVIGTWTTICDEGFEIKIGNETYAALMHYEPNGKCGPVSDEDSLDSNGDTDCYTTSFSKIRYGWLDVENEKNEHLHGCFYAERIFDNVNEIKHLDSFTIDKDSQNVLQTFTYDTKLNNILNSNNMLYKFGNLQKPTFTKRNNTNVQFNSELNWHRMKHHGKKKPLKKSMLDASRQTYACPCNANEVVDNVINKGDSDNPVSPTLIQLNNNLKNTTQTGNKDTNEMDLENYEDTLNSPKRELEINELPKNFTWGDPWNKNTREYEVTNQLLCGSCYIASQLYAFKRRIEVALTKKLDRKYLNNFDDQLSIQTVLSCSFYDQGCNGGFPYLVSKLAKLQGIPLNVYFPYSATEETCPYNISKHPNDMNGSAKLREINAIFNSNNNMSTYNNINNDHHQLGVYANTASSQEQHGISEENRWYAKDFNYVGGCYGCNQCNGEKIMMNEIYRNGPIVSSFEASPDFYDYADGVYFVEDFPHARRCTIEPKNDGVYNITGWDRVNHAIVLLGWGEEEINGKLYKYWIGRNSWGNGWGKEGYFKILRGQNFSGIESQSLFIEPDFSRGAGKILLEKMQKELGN

Row | Compound | % Inhibition @ 10 uM
1 | CCC(Cc1ccccc1)NC(=O)CS(=O)(=O)Cc1nc(-c2ccccc2Cl)oc1C (stereo not drawn) | 3.4%
2 | Cc1ccc(NC(=O)CCC(=O)O)cc1F | -2.51%
3 | Cc1cc(C)nc(N2CCN(c3nc(C)cc(C)n3)CC2)n1 | 1.83%
4 | O=C(CCc1ccccc1)c1c(O)cc(O)cc1O | -8.46%
5 | COc1ccc(Br)cc1C1C(C#N)=C(N)Oc2cc(C)n(CC3CCCO3)c(=O)c21 (stereo not drawn) | 3.93%
6 | O=C(O)C1CCCN1C(=O)NCc1ccccc1 (stereo not drawn) | 3.66%
7 | O=C(Nc1ccc(S(=O)(=O)Nc2nccs2)cc1)c1ccc(S(=O)(=O)N2CCCCC2)cc1 | -5.78%
8 | O=C(Cn1c(=O)c2cccn2c2cccnc21)N1CCN(Cc2ccc3c(c2)OCO3)CC1 | -0.397%
9 | CC1=C(C(=O)OCCOc2ccccc2)C(c2ccncc2)C2=C(O)CC(c3ccccc3)CC2=N1 (stereo not drawn) | -1.84%
10 | CCc1c(O)n2nc(-c3ccccc3)ccc2[n+](-c2ccccc2)c1=O | -0.588%
11 | COc1ccc(C2C3=C(O)CCCC3=Nc3nn(-c4ccccc4)c(O)c32)c(OC)c1OC (stereo not drawn) | -6.94%
12 | CCN(CC)C(=O)Cn1cc(C=O)c2cc(Br)ccc21 | 4.32%
13 | Fc1ccccc1N1CCN(Cc2cccnc2)CC1 | -0.969%
14 | C=CCN1C(=O)S/C(=C\c2ccc(OCC)c(OC)c2)C1=O | -5.14%
15 | COC(=O)C1=C(C)N=C(C)/C(=C(/O)OC)C1c1ccc(C)cc1 (stereo not drawn) | -1.2%
16 | COC(=O)C1=C(C)NC(=O)N(C(C)=O)C1c1ccc(Cl)cc1 (stereo not drawn) | 2.57%
17 | Cc1nnc(C)n1/N=C/c1ccccc1C(F)(F)F | -0.339%
18 | COc1ccccc1C(=O)N1CCN(c2ccc(Cl)cc2)CC1 | -0.425%
19 | CCOC(=O)c1c(C)oc2cc(S(=O)(=O)O)c(O)cc12 | -1.25%
20 | Cc1ccc(/S(CC2CC2(Cl)Cl)=N\S(=O)(=O)c2ccc(C)cc2)cc1 (stereo not drawn) | 3.27%
21 | COc1cccc(-c2cc(C(=O)N3CCCCC3C)no2)c1 (stereo not drawn) | -0.601%
22 | COc1cccc(CNC2CCSC2)c1OC (stereo not drawn) | 1.88%
23 | CCOc1ccc(/N=C2/S/C(=C\c3ccc4c(c3)OCO4)C(=O)N2CC)cc1 | -6.44%
24 | Cc1cc(C)nc(SCCC(=O)Nc2cccc3ccccc23)n1 | -8.14%
25 | COc1ccc(-c2noc(COc3cccc(C)c3C)n2)cc1 | -3.71%
26 | O=C(NC1CCCCCC1)C1CCCN(S(=O)(=O)N2CCC3(CC2)OCCO3)C1 (stereo not drawn) | 0.335%

Row | Compound | % Inhibition @ 10 uM
27 | CN1CCCN(Cc2cccc([N+](=O)[O-])c2)CC1 | -0.294%
28 | CCN(Cc1ccccc1)S(=O)(=O)c1cc(C(=O)OC)n(C)c1 | -4.68%
29 | CCOC(=O)C1=CN(Cc2ccc(Cl)cc2)C=C(C(=O)OCC)C1c1cccs1 | 0.219%
30 | CC1CCCCN1S(=O)(=O)c1ccc(C(=O)Nc2ccc3ccccc3c2)cc1 (stereo not drawn) | -2.8%
31 | COc1ccccc1CC(C)N(C)CCc1ccccc1 (stereo not drawn) | -5.11%
32 | COc1cc2cc(C(=O)N[C@@H](CC(C)C)C(=O)NCC#N)[nH]c2cc1OC | -5.2%
33 | CN(C)CCN(C)Cc1cccc(O)c1 | -6.12%
34 | CN(C)CCNc1oc(/C=C/c2ccc(F)cc2)nc1C#N | -2.57%
35 | Cc1nc2nc(NCc3ccc(OCc4ccccc4)cc3)nn2c(O)c1Cl | -2.4%
36 | O=C(CCN1C(=O)c2ccccc2C1=O)N1CCN(CCO)CC1 | 4.11%
37 | COC(=O)c1ccc2c(c1)C(=O)/C(=C/c1ccc(O)cc1)O2 | 3.45%
38 | O=C(NCCc1ccc(Cl)cc1)c1cc(O)nc2ccc(S(=O)(=O)N3CCCCCC3)cc12 | 9.13%
39 | CCOc1ccc(C(=O)Nc2cc(C(=O)O)cc(C(=O)O)c2)cc1 | -3.05%
40 | C/C(=N\OCc1nc2c3c4c(sc3ncn2n1)CCCC4)c1cccs1 | 10.8%
41 | COc1ccc(C(=O)/C=C/c2cc3ccccc3o2)c(OCc2ccccc2)c1 | -9.83%
42 | O=C(CN1C(=O)S/C(=C/c2cccs2)C1=O)N1CCCC1 | -2.09%
43 | CCOc1cc(C)c(/C=C2/NC(=O)N(Cc3ccccc3F)C2=O)cc1C(C)C | -1.81%
44 | O=C(NCc1ccc2c(c1)OCO2)c1csc2c1CCCC2 | -3.21%
45 | CCN(CC)Cc1csc2ccc(Cl)cc12 | -12.2%
46 | CCOc1ccc(-c2csc(/C(C#N)=C/c3ccco3)n2)cc1 | 1.08%
47 | COc1ccc(C2c3c(-c4ccccc4O)n[nH]c3C(=O)N2Cc2ccncc2)cc1OC (stereo not drawn) | -3.49%
48 | CCC1CCc2c(sc(NC(=O)Cc3ccc(Br)cc3)c2C(N)=O)C1 (stereo not drawn) | -7.84%
49 | Cc1nc(-n2cc(F)c(=O)[nH]c2=O)c2nc(C)oc2n1 | -1.32%
50 | COc1ccc(-c2nc(CNS(=O)(=O)c3ccccc3F)cs2)cc1 | 4.14%
51 | CCN1CCN(C(=O)c2ccc(CNS(=O)(=O)c3cccc(OC)c3)cc2)CC1 | -3.37%
52 | Cc1nc([N+](=O)[O-])c(N2CCOCC2)n1Cc1ccccc1 | 1.44%

Row | Compound | % Inhibition @ 10 uM
53 | Cc1ccc([N+](=O)[O-])cc1NC(=O)c1ccc(-c2ccccc2)cc1 | -4.08%
54 | CC(C)(C)OC(=O)NC(CC/N=C/C1=C(O)OC(C)(C)OC1=O)C(=O)O (stereo not drawn) | 0.343%
55 | COc1ccc(Cc2nc3ccccc3n2C)cc1 | -2.28%
56 | O=C(O)C1CC=CCC1C(=O)Nc1ccc(N2CCN(CCO)CC2)cc1 (stereo not drawn) | -1.61%
57 | CCN1CCN(CCNC(=O)c2oc3c(c2C)-c2nn(Cc4cccc(Cl)c4)cc2CC3)CC1 | -7.67%
58 | Cc1ccc(-n2ncc(C(=O)NCCCN3CCc4ccccc4C3)c2C2CCNCC2)cc1C | -5.36%
59 | CCOc1ccc(C(O)Cc2nc3ccccc3n2C)cc1 (stereo not drawn) | 7.1%
60 | Oc1ccc(CN(CCc2ccccc2)Cc2ccccc2)cc1 | -4.04%
61 | CC1CN(C)C(C)/C(=C\c2ccco2)C1=O (stereo not drawn) | 3.32%
62 | c1ccc2c(c1)CCN(CCCNc1nc3ccccc3n3cnnc13)C2 | -4.21%
63 | COc1cc2nc(NCc3cccnc3)n3nc(-c4ccccc4)nc3c2cc1OC | -0.692%
64 | CC(C)(C)c1cc(C(=O)Nc2cccc(C(=O)O)c2)cc(C(C)(C)C)c1 | 10.2%
65 | CC(C)(C)/N=C(\NS(=O)(=O)c1ccc(Cl)cc1)c1ccc(Br)cc1 | -2.59%
66 | O=C(Cc1ccc(F)cc1)NCCSc1c[nH]c2ccccc12 | 2.64%
67 | Cc1cccc(NC(=O)COc2ccccc2)c1C | 9.94%
68 | CS(=O)(=O)N(CC(=O)Nc1ccc2c(c1)OCCO2)Cc1ccccc1 | -6.86%
69 | CCc1nonc1NC(=O)c1oc2cc(Br)ccc2c1C | -1.71%
70 | CC1=C(C(=O)Nc2cccc(C)n2)C(c2cccs2)C2=C(O)CC(C)(C)CC2=N1 (stereo not drawn) | -2.53%
71 | C=CCn1c(SCCC)nc2ccccc2c1=O | -4.6%
72 | CCCCN(Cc1ccccc1)Cc1ccc(C)o1 | 1.62%
73 | CCN(CC)CCCCOc1ccc(C)cc1 | 1.13%
74 | CC1=C(C(=O)Nc2ccccc2C)C(c2ccncc2)n2ncnc2N1 (stereo not drawn) | -4.41% and -1.61%
75 | Cc1cccc(C(=O)Nc2cccc(Cl)c2)c1 | -1.38%
76 | Nc1ccc2c(c1)S(=O)(=O)c1cc(N)ccc1-2 | -0.216%
77 | C=CCOC(=O)c1sc(N2C(=O)c3oc4ccccc4c(=O)c3C2c2ccc(C)cc2)nc1C (stereo not drawn) | -2.92%
78 | CCN(CCCNc1ncnc2onc(C)c12)Cc1ccccc1 | -1.42%

Row | Compound | % Inhibition @ 10 uM
79 | Cc1ccc(N2C(=O)CC(NC3CCCC(C)C3C)C2=O)cc1 (stereo not drawn) | 5.39%
80 | COc1ccc(/C=C(/NC(=O)c2cccc(Br)c2)C(=O)O)cc1 | 7.03%
81 | CCOC(=O)N1CCN(C(=O)C2CCN(S(C)(=O)=O)CC2)CC1 | -2.99%
82 | CC(CNc1nn2nnnc2c2ccccc12)c1ccccc1 (stereo not drawn) | -1.16%
83 | O=C(Nc1nnc(Cc2c[nH]c3ccccc23)s1)c1ccc(Cl)cc1Cl | 16.3%
84 | NC(=O)Cn1cnc2c(oc3ccccc32)c1=O | -2.67%
85 | O=C(CCN1CCCCC1)C12CC3CC(CC(C3)C1)C2 | 4.15%
86 | Cc1cccc(CCNS(=O)(=O)c2cc(Br)cnc2N)c1 | 3.92%
87 | Clc1ccc(-c2noc3ncnc(N4CCN(c5ccccn5)CC4)c23)cc1 | 12.6%
88 | O=C(CCCC(=O)Nc1ccc(F)c(F)c1)Nc1ccc(F)c(F)c1 | -0.105%
89 | CCOC(=O)C1CCCCN1Cc1ccc(SC)cc1 (stereo not drawn) | -3.72%
90 | Cc1ccc(C(=N)NOC(=O)c2ccccc2)cc1 | -1.26%
91 | CCCOc1ccc(C2C(C(=O)OC)=CN(C)C=C2C(=O)OC)cc1 | 3.45%
92 | COc1cc(SC#N)ccc1/N=C/c1c(C)nn(-c2ccc(Cl)cc2)c1O | -2.8%
93 | Cc1c(CNCCCOC(C)C)c(C(=O)O)c(C)n1Cc1ccccc1F | -1.92%
94 | CCCCNC(=O)C1c2ccccc2C(=O)N(C)C1c1cccs1 (stereo not drawn) | -0.972%
95 | Cc1ccc2nc(NC(=O)C3CCCCC3C(=O)O)sc2c1 (stereo not drawn) | -3.04%
96 | Cc1cccc(/C(C#N)=C/c2ccc(N(C)C)cc2)c1 | 0.385%
97 | COc1ccc(C(=O)CSc2ccc3nnc(CCNS(=O)(=O)c4ccc(C)cc4)n3n2)cc1 | 5.6%
98 | COc1ccc(C(=O)Nc2ccc(Cl)cc2C)c(OC)c1 | 0.843%
99 | Cc1ccc2c(c1)c1c3n2CCN(C(N)=O)C3CCC1 (stereo not drawn) | -0.351%
100 | CN(C)CCCNC1CCCCC1C1=CCCCC1 (stereo not drawn) | 4.7%
101 | CCOC(=O)N1CCN(C(=S)NC2CCCCC2)CC1 | 2.17%
102 | O=C1c2ccccc2CS(=O)(=O)c2ccccc21 | -4.54%
